Assay results published in PubChem BioAssay AID2675 (National Center for Advancing Translational Sciences (NCATS), 2010).
Among all 280,000 compounds or so, about 100 (0.036%) were called active. Inconclusive means that the source gave no clear call. Such entries were picked first, then a sample of the others. The call rests on the fitted dose curve; in most records, active means well fitted inhibition curve with a large enough effect in the signal ratio, with a control signal flat (not every such curve was filed as active); inconclusive means small, poorly fitted or top-dose-only effect, or effect the other way, or a change in a side signal; inactive means no such curve, though single readings can be large or run the other way; the % refers to the signal ratio. Where the call is inconclusive, the potency comes from a doubtful curve fit. A note “side channel” means that the fit belongs to a control or component signal, not to the main read-out.

Target: Muscleblind-like protein 1 (Homo sapiens) (UniProt Q9NR56)
Test: qHTS Assay for Inhibitors of MBNL1-poly(CUG) RNA binding
Conditions: TR-FRET MBNL1-His/biotin-(CUG)12 binding, 665/545 ratio; activity change, negative = inhibition: at 57.5 µM (top of the series)
Method in brief: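 TR-FRET readout: Ex 340 nm, 665/545 nm emission ratio, normalized to buffer-only (basal) and MBNL1-(CUG)12 controls. Complex of MBNL1-His with Biotin-(CUG)12, compounds 92 nM–58 uM, incubated 60 min at room temperature.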
On the % scale 0 is the no-effect control and ±100 the full control effect; potency means the concentration at half of the fitted maximal effect; tags describe the fitted curve by direction and shape or compound fluorescence and quenching.

Sequence of UniProt Q9NR56 (Q9NR56 whole entry, looked up): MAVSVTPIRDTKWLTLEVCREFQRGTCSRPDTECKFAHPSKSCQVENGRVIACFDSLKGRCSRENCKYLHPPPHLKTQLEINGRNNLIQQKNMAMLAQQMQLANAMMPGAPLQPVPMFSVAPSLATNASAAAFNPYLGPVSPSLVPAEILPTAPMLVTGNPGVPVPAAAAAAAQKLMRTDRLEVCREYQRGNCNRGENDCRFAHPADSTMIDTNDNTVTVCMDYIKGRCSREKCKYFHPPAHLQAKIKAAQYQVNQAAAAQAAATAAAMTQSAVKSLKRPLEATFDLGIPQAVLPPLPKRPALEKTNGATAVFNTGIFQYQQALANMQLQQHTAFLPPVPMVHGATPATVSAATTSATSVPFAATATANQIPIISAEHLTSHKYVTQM

| SMILES | Potency | activity change, negative = inhibition |
| --- | --- | --- |
| O=C1CSC(c2ccc([N+](=O)[O-])cc2)N1Cc1ccccc1 (stereo not given) | inconclusive: 25.1 µM [quencher, side channel, partial curve] | – |
| Cc1cc(C)c2cc(C#N)c(NCCOC(=O)c3ccccc3C)nc2c1 | inconclusive: 39.8 µM [fluorescent, single point] | – |
| CCCCNC(=O)C1CCC(CNS(=O)(=O)c2cccc3nsnc23)CC1 (stereo not given) | inconclusive: 15.8 µM [quencher, side channel, partial curve] | – |
| O=C1N/C(=N\N=C\c2ccccn2)SC1Cc1cccc(SC(F)F)c1 (stereo not given) | – | inactive: -14.7% |
| N#C/C(=N\Nc1ccccc1F)C(=N)N1CCCCC1 | inconclusive: 2.82 µM [quencher, side channel, full curve, poor fit] | – |
| Oc1c(C(Nc2ccccn2)c2ccccn2)ccc2cccnc12 (stereo not given) | – | inactive: 8.38% |
| C/C(=C1/C(=O)N(c2ccc([N+](=O)[O-])cc2)N=C1c1ccccc1)N(C)C | inconclusive: 22.4 µM [quencher, side channel, partial curve] | – |
| COc1ccc(-c2cc(C(=O)OC3CCOC3=O)c3ccccc3n2)cc1OC (stereo not given) | inconclusive: 14.1 µM [quencher, side channel, partial curve] | – |
| S=c1[nH]nc(-c2ccc(Cl)cc2)n1Cc1ccccc1 | – | inactive: 5.27% |
| CCC/C=N/NC(=O)c1ccccc1O | – | inactive: -7.05% |
| O=C(NCCO)c1ccc(-c2nnc(N3CCOCC3)c3ccccc23)cc1 | inconclusive: 15.8 µM [quencher, side channel, partial curve] | – |
| COc1ccccc1CNC(=O)C1CC(c2ccc([N+](=O)[O-])cc2)=NO1 (stereo not given) | inconclusive: 10 µM [quencher, side channel, partial curve] | – |
| O=Cc1cc(N=Nc2cccc(C(=O)O)c2)ccc1O | inconclusive: 20 µM [quencher, side channel, partial curve] | – |
| O=C(CCC(=O)OCc1ccc([N+](=O)[O-])cc1)Nc1ccccc1Cl | inconclusive: 20 µM [quencher, side channel, partial curve] | – |
| CC(=O)NN=C1CCC(c2ccccc2)CC1 (stereo not given) | – | inactive: -11% |
| C=CCn1c(SCc2csc(C)n2)nc2sc3c(c2c1=O)CCC(C)C3 (stereo not given) | inconclusive: 39.8 µM [quencher, side channel, single point] | – |
| O=C(NC(Cc1ccccc1)C(=O)O)/C(=C\c1ccc([N+](=O)[O-])cc1)NC(=O)c1ccco1 (stereo not given) | inconclusive: 14.1 µM [quencher, side channel, partial curve] | – |
| CN(C)c1ccc(N=Nc2ccccc2C(=O)OCC(=O)NC2CCCC2)cc1 | inconclusive: 10 µM [quencher, side channel, partial curve] | – |
| COC(=O)C1=C(C)NC(C)=C(C(=O)OC)C1c1cc2cc(C)ccc2[nH]c1=O | inconclusive: 31.6 µM [quencher, side channel, partial curve] | – |
| Oc1ccc(/C=N/Nc2nccnc2Cl)cc1 | inconclusive: 22.4 µM [quencher, side channel, partial curve] | – |
| COc1ccc(C(=O)NC(=S)NC(C)C)cc1Br | – | inactive: -12.6% |
| COc1cccc(CNC(=O)CSCc2cnn(-c3ccccc3)c2-n2cccc2)c1OC | – | inactive: -10.6% |

| SMILES | Potency | activity change, negative = inhibition |
| --- | --- | --- |
| COc1ccc(C(=O)N2N=C(c3ccccc3)CC2(O)C(F)(F)F)cc1 (stereo not given) | – | inactive: -4.59% |
| O=C(Cc1ccccc1[N+](=O)[O-])Nc1ccc(S(=O)(=O)N2CCCC2)cc1 | inconclusive: 35.5 µM [quencher, side channel, single point] | – |
| COCCn1c(=NC(=O)c2ccc(S(=O)(=O)N3CCc4ccccc4C3)cc2)sc2cc(S(N)(=O)=O)ccc21 | inconclusive: 35.5 µM [fluorescent, single point] | – |
| COc1cc([N+](=O)[O-])cc(/C=N/NC(=O)Cn2cncn2)c1O | inconclusive: 25.1 µM [quencher, side channel, partial curve] | – |
| O=C(NCc1ccco1)c1cnn2c(C(F)F)cc(-c3ccccc3)nc12 | – | inactive: 1.14% |
| Cc1n[nH]c(=S)n1/N=C/c1cccc(OCc2ccccc2)c1 | – | inactive: -4.49% |
| CCOc1ccc(N(Cc2nnc3n2CCCCC3)C(=O)Nc2cccc(C)c2)cc1 | – | inactive: -3.65% |
| CC(=O)Nc1ccc(NC(=O)c2cccc3c2-c2ccccc2C3=O)cc1 | inconclusive: 7.94 µM [quencher, side channel, partial curve] | – |
| CC(C)N(C(=O)/C=C/c1cccc([N+](=O)[O-])c1)C(C)C | inconclusive: 14.1 µM [quencher, side channel, partial curve] | – |
| Cc1ccc(C(=O)NC(=S)Nc2ccc(N3CCOCC3)cc2)cc1C | – | inactive: -3.37% |
| O=C(COC(=O)CNC(=O)c1ccccc1)Nc1ccc(F)c([N+](=O)[O-])c1 | inconclusive: 12.6 µM [quencher, side channel, partial curve] | – |
| NC(=S)N/N=C/c1ccc2cccc(OCc3ccccc3)c2n1 | inconclusive: 25.1 µM [quencher, side channel, single point] | – |
| CCCCNC(=O)c1cc2c(=O)n3cccc(C)c3nc2n(CCN2CCOCC2)c1=N | inconclusive: 14.1 µM [quencher, partial curve] | – |
| COc1ccc(/C=C2\SC(=S)N(CCCC(=O)N3CCOCC3)C2=O)cc1OC | inconclusive: 12.6 µM [quencher, side channel, partial curve] | – |
| O=C(NCCOC(=O)c1ccccc1)c1ccc([N+](=O)[O-])cc1 | inconclusive: 14.1 µM [quencher, side channel, partial curve] | – |
| CCC(=O)OCCNc1cc(SCCC(=O)OC)c2nonc2c1[N+](=O)[O-] | inconclusive: 6.31 µM [quencher, side channel, partial curve] | – |
| O=C(OCc1ccc(F)cc1)c1cc(=O)c2ccccc2o1 | inconclusive: 28.2 µM [quencher, side channel, single point] | – |
| COc1cc([N+](=O)[O-])cc(/C=N/N(CCC#N)C(C)=O)c1O | inconclusive: 39.8 µM [quencher, side channel, single point] | – |
| CC(C)(C)OC(=O)[C@H](Cc1ccccc1)NC(=O)c1nc[nH]c1C(=O)N[C@@H](Cc1ccccc1)C(=O)OC(C)(C)C | – | inactive: -7.85% |
| CC(=O)Oc1c(C)c(=O)n(C)c2ccccc12 | – | inactive: -3.96% |
| Cc1cccn2c(=O)c3cc(C#N)c(=N)n(CCN4CCOCC4)c3nc12 | inconclusive: 28.2 µM [quencher, single point] | – |
| O=C(N/N=C/c1ccco1)c1cc(-c2ccccc2)n[nH]1 | inconclusive: 39.8 µM [quencher, side channel, partial curve] | – |

| SMILES | Potency | activity change, negative = inhibition |
| --- | --- | --- |
| O=C(NCCO)c1cccc2c1-c1ccccc1C2=O | inconclusive: 5.01 µM [quencher, side channel, single point] | – |
| O=C(Cn1cnc2cc([N+](=O)[O-])ccc2c1=O)Nc1cccc2ccccc12 | inconclusive: 1.12 µM [quencher, side channel, full curve] | – |
| S=C(Nc1cccnc1)Nc1cccc2cnccc12 | – | inactive: 10.3% |
| COc1ccc(CCN2C(=O)NC(NS(=O)(=O)c3ccccc3)(C(F)(F)F)C2=O)cc1OC (stereo not given) | – | inactive: 0.281% |
| Cn1c(Cn2cnc([N+](=O)[O-])n2)nnc1SCC(=O)Nc1ccccc1 | inconclusive: 15.8 µM [quencher, side channel, partial curve, poor fit] | – |
| COCCNC(=O)/C(C#N)=C/c1ccc(C)o1 | inconclusive: 3.16 µM [quencher, side channel, full curve] | – |
| CCOC(=O)c1ccc(NC(=O)N2CCN(c3cccc(OC)c3)CC2)cc1 | – | inactive: -9.49% |
| CCOC(=O)c1cc(Br)c(=O)n2ccccc12 | inconclusive: 31.6 µM [quencher, side channel, single point] | – |
| O=C(CSc1ccc(-c2ccccc2)nn1)NC1CCCCC1 | – | inactive: -0.129% |
| COc1ccc(C(=O)N(C)Cc2ccccc2)cc1Br | – | inactive: -12.2% |
| C[n+]1cccc2cccc([O-])c21 | inconclusive: 14.1 µM [quencher, side channel, partial curve] | – |
| CCSC1=C(C#N)C(c2ccc(C)o2)CC(=O)N1 (stereo not given) | – | inactive: -0.217% |
| Cc1cc(C)n(C(=O)CN(C)S(=O)(=O)c2ccc([N+](=O)[O-])cc2)n1 | inconclusive: 14.1 µM [quencher, side channel, partial curve] | – |
| Oc1ccccc1/C=N/Nc1nc2ccccc2o1 | – | inactive: 8.09% |
| Cc1[nH]n(-c2ccccc2)c(=O)c1/C=N/N1C(=O)c2cccc3cccc(c23)C1=O | inconclusive: 8.91 µM [quencher, partial curve] | – |
| CCOc1ccc(C2C3=C(Nc4nc(N)[nH]c(=O)c42)c2ccccc2C3=O)cc1 (stereo not given) | inconclusive: 35.5 µM [quencher, side channel, single point] | – |
| CCN(CC)C(=O)COc1ccc2oc(-c3ccco3)cc(=O)c2c1 | inconclusive: 11.2 µM [quencher, side channel, partial curve] | – |
| C=CCN(c1ccccc1Cl)S(=O)(=O)c1cccc(C(=O)NCCc2ccc(OC)cc2)c1 | inconclusive: 8.91 µM [quencher, side channel, single point] | – |
| Cc1c(C(=O)N/N=C/c2cccs2)nnn1-c1nonc1N | inconclusive: 12.6 µM [quencher, side channel, partial curve] | – |
| Cc1ccc(S(=O)(=O)CNC(=S)c2ccc3ccccc3c2)cc1 | – | inactive: -5.34% |
| O=C(N/N=C/c1ccc(N2CCOCC2)cc1)c1ccccn1 | inconclusive: 15.8 µM [quencher, side channel, partial curve] | – |
